The other results are listed elsewhere or left out.
T1: UNK ZnF1-3 (human, UniProt Q9C0B0 31-174)
T1 sequence: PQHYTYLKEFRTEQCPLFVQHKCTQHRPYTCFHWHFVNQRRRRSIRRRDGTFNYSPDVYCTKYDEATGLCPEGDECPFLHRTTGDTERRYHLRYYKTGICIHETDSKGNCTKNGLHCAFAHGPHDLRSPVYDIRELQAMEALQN

B1: chr2:217001844:217001845:+_ENSG00000079246_ENST00000392132|hu_hu|hu_hu_hu_mus_False|68_68 (ssRNA)
RNA: GGGAGUUCUACAGUCCGACGAUCACCAACUUGAGGAUUAGAUCUUUUGUCAUAAGCAUAUCGGACGAUGGCCACCAUGUUUAACUCAUCCAAAGCAUGAACGAGAGAGGAAAGGGCAACAGCUGCCGCCUCAUCAUCCUUUGCCAACAGAGGAUUGAGCAUCA
B2: 75867097_75868833_2698_CDS_ENSG00000035403_ENST00000372755|human|control|control (ssRNA)
RNA: GGGAGUUCUACAGUCCGACGAUCCUGCUCAGGGAACUCUUCAUCCUUUUCCUCUGGUGGUGGAGGCCUAGGUGGAGGGACCUCACCUUCAGGCAGAGGUGGUUUGGGAGGAGCAAGCUCAUCUGUUAGUCGGAGUUGUUCAAGCAACAGAGGAUUGAGCAUCA
B3: chr17:13115065:13115066:+_ENSMUSG00000068039_ENSMUST00000151287|mus_hu|FALSE|FALSE (ssRNA)
RNA: GGGAGUUCUACAGUCCGACGAUCAAUAGUUGCUCCAGAAGCUUUGGCAAUGCGUUUAAGGUCCCUUUUUAAAACUCUUCUAACUGCCAUAGCACCAGCCUCCACAAAAUACUUCAGACACAUAUCAUCAAUUCCACCAGUGGUCAACAGAGGAUUGAGCAUCA
B4: chr1:220275481:220275482:+_ENSG00000067704_ENST00000302637|hu_hu|FALSE|FALSE (ssRNA)
RNA: GGGAGUUCUACAGUCCGACGAUCAAAUGCUGAUUUCUGUUUCUCAAUGGCUGCUUUAGCAAAUGAUCUAGCUUUCUUUCUAAUUUCCAUAGCUGAAAGAUUCUGAGCUUCUCUACCAAGUUCUGAUAAUACUUUUAUUUCAAUCAACAGAGGAUUGAGCAUCA
B5: 78012816_78016265_409_CDS_ENSMUSG00000025428_ENSMUST00000026495|mouse|control|control (ssRNA)
RNA: GGGAGUUCUACAGUCCGACGAUCAGCUGUGCCAGUCUUCUGAAGUCGAGUGUUAGAGGCAUGGAGAUUUCUUGCACCAACAAAGGAUGACCCCAAAGCAUUUUUGGAGACCAGUCCCGCCCGUCGAGGGAGGGCACGGGCCACCAACAGAGGAUUGAGCAUCA
B6: 16720979_16721531_715_3pUTR_ENSG00000125870_ENST00000246071|human|control|control (ssRNA)
RNA: GGGAGUUCUACAGUCCGACGAUCGCCUCCCUGGUACCAGACGUACUUCCUUGAAGCCAGGGAACUGAUUAAACAGCAUGGAUAACAUCAUCUCAUUAGUCUCUUCUGGUAAGUUAUUAAGGAAUAAAAUAUAGUUUGGAGGGUCAACAGAGGAUUGAGCAUCA
B7: chr2:103900078:103900079:+_ENSMUSG00000027180_ENSMUST00000028603|mus_mus|FALSE|FALSE (ssRNA)
RNA: GGGAGUUCUACAGUCCGACGAUCGAAGUCUGGUCUGGUGUAGGCAUGGUGCACACAUCUAGCACUUGGGAGGCAAUCGAGCUAUAGACACCCUGAAUGUUGGACAUGCCAUGUGGAAUCGGGGGAUGGCAACAUUAAAGACCUCAACAGAGGAUUGAGCAUCA
B8: chr5:31101443:31101444:+_ENSMUSG00000029168_ENSMUST00000114729|mus_mus|FALSE|FALSE (ssRNA)
RNA: GGGAGUUCUACAGUCCGACGAUCUGGUUUUUGGGUCAAUAUAAGAGAUGCCAUUGUCACGGCAAUGGCUUGACAAGCAACCUACUGUGGACUCCUAGCACUACACAUACACACACGCACACACACACUGUAGCACAAUUUUCUCAACAGAGGAUUGAGCAUCA
B9: 91656768_91656888_2245_CDS_ENSMUSG00000022961_ENSMUST00000114036|mouse|control|control (ssRNA)
RNA: GGGAGUUCUACAGUCCGACGAUCCUGGGAGUCCAUGGUGCUAGAGGCUAACAUCUGGGAGUCCAUGGUAUUGGAUGCUAGCAUCUGAGAAUCCAUAGUGUUGGAUGCUAGCAUCUGGGAGUCCAUGGUAUUGGAUGCUAACAUCAACAGAGGAUUGAGCAUCA
B10: chr9:74900086:74900087:+_ENSMUSG00000007656_ENSMUST00000169492|mus_hu|FALSE|FALSE (ssRNA)
RNA: GGGAGUUCUACAGUCCGACGAUCUUGUCCCAGAUGAGGAUAUCUUGCUUUUAAUUUUGCUUCUUCUGCUUUCUCUGGACUAGUCACUUUAUCUUCCAUUUCCUUCUGCUCCUCCGCGGAGGCUGCCUCGGGGACUUCCGCAGACAACAGAGGAUUGAGCAUCA
B11: chr1:155290277:155290278:+_ENSG00000160752_ENST00000447866|hu_hu|FALSE|FALSE (ssRNA)
RNA: GGGAGUUCUACAGUCCGACGAUCGUACUGUUCAAUGAGAGCCAUAAUGUGGCUGUAACUGUCUUCCUCAUAUUGCAAGAACACUGCUGGCAGAUCCAGCUCCUCAUAUAGCGCCUUCACCCGGGCCACUUUCUCAGCCUCCUUCAACAGAGGAUUGAGCAUCA
B12: chr5:33170631:33170632:-_ENSMUSG00000054280_ENSMUST00000120129|mus_mus|FALSE|FALSE (ssRNA)
RNA: GGGAGUUCUACAGUCCGACGAUCGGAAUGGCACAGAGUAGCCUUCGGCUUUGGUAUGUGGCUGCGCAAGUUCUCGCUAGCUACGGUUUCAGGUUCCAAUGGCUUGGCAGGCACAGUACAUGGGCUGAGAAGUCUGUGUGCUUUCAACAGAGGAUUGAGCAUCA
B13: chr4:76721835:76721836:+_ENSG00000138768_ENST00000264904|hu_mus|hu_hu_hu_mus_True|38_58 (ssRNA)
RNA: GGGAGUUCUACAGUCCGACGAUCGUUUGGCUGGGGUUUCUGAGACGCUCUGGAAUAUAACUCAUGUUUGCUAAUAAUCCUAGUUUCCUCUAUGAAAUCUCUUUGCCCAAUCCUCUUCUCUAUUAGUUGCUUUAGUUUCUCUUUCAACAGAGGAUUGAGCAUCA
B14: chr1:85787162:85787163:-_ENSG00000153904_ENST00000284031|hu_mus|FALSE|FALSE (ssRNA)
RNA: GGGAGUUCUACAGUCCGACGAUCCUGGCCACAGGGAAGGGACUCUCUGGCUCAGGAGUCUAUCUUCUUGUUAAUAAAAACGGAGCAGCAGGUGAGCAAGCCGUCCACCUUUUCCAUCUCCGAGUUGCUCACAGGGAUCAGUAGCAACAGAGGAUUGAGCAUCA
B15: 27142941_27143061_3044_3pUTR_ENSG00000154727_ENST00000400075|human|control|control (ssRNA)
RNA: GGGAGUUCUACAGUCCGACGAUCCAUUCCAAACCACUACCAGAAUUGCUAACAAUGCCAUCUUGCCUGUAUUAUCAUGCCUUUUUCUCCUAGUUAAGUCAAAAGCAUUAACUGAGCUCUUAAGAAGCUUUUUAAGAGGACAGACAACAGAGGAUUGAGCAUCA
B16: chr16:22092171:22092172:+_ENSG00000185716_ENST00000542527|hu_hu|FALSE|FALSE (ssRNA)
RNA: GGGAGUUCUACAGUCCGACGAUCCAAUUUAGACAUUCAUCAGCCUGGUAAACAAACUUUGCCAGCAAAUAGAAGUCCUACUAUUGUAAAGAAAAUUGAUAAGACAAAAAGUACAUAUGAUGACCCAACUACUGUGUUGUUGGGCAACAGAGGAUUGAGCAUCA
B17: chr6:40197388:40197389:+_ENSMUSG00000057716_ENSMUST00000061740|mus_mus|mus_mus_mus_hu_False|38_108 (ssRNA)
RNA: GGGAGUUCUACAGUCCGACGAUCGAGUUGUCAGUUUGGAUUUAUUCCACCUCUGUUUGGGUGCUAGCCACUAAGACUGUUAUUUUGGGAUUCAUGGCCUUGAAGAUCAAGAGGGAAAGGAAGAGGAUGGAAAGAGUCAAGAGUCAACAGAGGAUUGAGCAUCA
B18: 47073773_47074001_3129_CDS_ENSG00000130985_ENST00000335972|human|control|control (ssRNA)
RNA: GGGAGUUCUACAGUCCGACGAUCCAUGAAGAAGGAAUAGAGCAUGGACACGCCCUGGGACAGCAUGGUGAUCUCUAAUUUGUGCUCUGUCUUAAAAUAGUCGAGGAACUGUUUGAGGGUCAUCUCCUCACCAUUAGGCUGCAGCAACAGAGGAUUGAGCAUCA
B19: 123088758_123088878_90_5pUTR_ENSMUSG00000028114_ENSMUST00000029759|mouse|control|control (ssRNA)
RNA: GGGAGUUCUACAGUCCGACGAUCCUGCUCACCACCCCGACAGACUCCGCGCCCGCCAAAAUGCAAAUCCACCUGCCAAACCAGGAAACACCGGGUCCCGCCCCGCAGAGAUUCUGACCCGGAGACUUUCACGUCCCUCAGGAGCAACAGAGGAUUGAGCAUCA
B20: chr4:122741918:122741919:-_ENSG00000145386_ENST00000274026|hu_hu|motif|central (ssRNA)
RNA: GGGAGUUCUACAGUCCGACGAUCGUCUGGCUGUUUCUUCAUGUAACCCACUUUAGGUUUACAUUUAACCUCCAUUUCCCGGAGGUAUGUGUGAAUAUCCUCAUGGUAGUCUGGUACUUCAUUAACACUCACUGGCUUUUCAUCCAACAGAGGAUUGAGCAUCA
B21: 14352133_14352253_3167_3pUTR_ENSMUSG00000013076_ENSMUST00000013220|mouse|control|control (ssRNA)
RNA: GGGAGUUCUACAGUCCGACGAUCCUGUCCUGGUUUUGCAGUUGCUACUGCAACUGCCCAUCUGGAGCUCUUCUUUCAGCCUCUGUUCUCAUCUGUCAGCAUGCUGGCAAGCGCCACAGGACGACGCUAGAUGAGCACUUCCAUCAACAGAGGAUUGAGCAUCA
B22: chr8:38067834:38067835:+_ENSG00000156735_ENST00000287322|hu_mus|motif|central (ssRNA)
RNA: GGGAGUUCUACAGUCCGACGAUCCUUUGUCAGCAUUUCUUCCAGAAGCCAAUACGCUUUGUCUGUCUUUUUUCCGGCAAACUCUUCGGCUUCUUGCUCAAGAAACUGCACCUUCUCCAGCACAUGUAUGAUCUUUUUAAUACUCAACAGAGGAUUGAGCAUCA

What follows are binders tested against T1, UNK ZnF1-3 (assay: nsRBNS (natural sequence RNA bind-n-seq); RBNS binding buffer (assumed for nsRBNS): 25 mM Tris pH 7.5, 150 mM KCl, 3 mM MgCl2, 0.01% Triton X-100, 500 ug/ml BSA, 20 U/ml SUPERase-In, 4 C; UNK is unkempt and MSI1 is Musashi-1; names of the RNAs are library labels; protein concentration not given here; high values mean tight binding).

Binder	binding signal
B1	2.24 enrichment R
B2	1.1 enrichment R
B3	1.21 enrichment R
B4	0.789 enrichment R
B5	2.96 enrichment R
B6	2.96 enrichment R
B7	1.55 enrichment R
B8	1.1 enrichment R
B9	1.27 enrichment R
B10	0.474 enrichment R
B11	0.847 enrichment R
B12	0.766 enrichment R
B13	0.362 enrichment R
B14	0.94 enrichment R
B15	1.42 enrichment R
B16	0.51 enrichment R
B17	1.46 enrichment R
B18	1.77 enrichment R
B19	1.21 enrichment R
B20	0.393 enrichment R
B21	0.409 enrichment R
B22	0.313 enrichment R
